In all, about 310,000 compounds went through this assay and about 14,000 (4.5%) showed an effect of 50% or more. The effect is printed as a negative number. The list shows a part of the results.
target: human ether-à-go-go-related gene (hERG) potassium channel (human, UniProt Q12809); experiment: primary screen, population patch clamp on CHO cells stably expressing hERG
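Also: peak tail current of the secondary pulse compared with the same well before compound.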

human ether-à-go-go-related gene (hERG) potassium channel, sequence (Q12809 whole entry, looked up): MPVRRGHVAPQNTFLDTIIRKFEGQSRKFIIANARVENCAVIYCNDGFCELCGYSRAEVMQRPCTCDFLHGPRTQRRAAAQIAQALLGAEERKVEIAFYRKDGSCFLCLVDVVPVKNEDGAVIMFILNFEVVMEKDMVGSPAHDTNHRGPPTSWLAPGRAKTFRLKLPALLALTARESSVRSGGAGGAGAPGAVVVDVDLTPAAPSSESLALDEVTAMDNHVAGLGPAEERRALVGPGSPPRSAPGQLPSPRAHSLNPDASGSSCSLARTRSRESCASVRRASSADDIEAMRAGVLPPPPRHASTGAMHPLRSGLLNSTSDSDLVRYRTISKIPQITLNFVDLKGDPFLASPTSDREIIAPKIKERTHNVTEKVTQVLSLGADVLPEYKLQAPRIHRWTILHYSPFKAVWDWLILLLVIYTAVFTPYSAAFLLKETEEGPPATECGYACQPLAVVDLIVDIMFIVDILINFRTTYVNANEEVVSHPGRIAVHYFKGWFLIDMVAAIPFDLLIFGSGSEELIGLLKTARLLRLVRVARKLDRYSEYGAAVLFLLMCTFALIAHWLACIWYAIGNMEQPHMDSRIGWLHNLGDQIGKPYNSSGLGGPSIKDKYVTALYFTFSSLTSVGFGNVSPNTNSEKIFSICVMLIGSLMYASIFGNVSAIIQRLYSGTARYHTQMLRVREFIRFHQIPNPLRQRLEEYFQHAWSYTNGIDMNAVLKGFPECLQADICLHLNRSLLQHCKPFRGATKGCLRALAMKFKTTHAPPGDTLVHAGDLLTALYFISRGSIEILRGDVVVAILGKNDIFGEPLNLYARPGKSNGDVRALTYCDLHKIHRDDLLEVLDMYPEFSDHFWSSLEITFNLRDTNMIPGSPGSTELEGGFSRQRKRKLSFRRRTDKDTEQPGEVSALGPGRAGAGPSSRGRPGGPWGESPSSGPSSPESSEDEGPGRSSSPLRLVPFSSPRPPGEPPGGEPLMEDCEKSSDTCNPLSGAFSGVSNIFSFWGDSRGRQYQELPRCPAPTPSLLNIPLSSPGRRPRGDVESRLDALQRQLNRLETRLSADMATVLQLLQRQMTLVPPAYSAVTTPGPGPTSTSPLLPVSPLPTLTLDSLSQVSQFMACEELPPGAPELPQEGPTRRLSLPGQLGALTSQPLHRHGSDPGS

| Structure (SMILES) | hERG current change (%, negative = inhibition) at 10uM |
| --- | --- |
| CC(C)N=C(N)N=C(N)Nc1ccc(Cl)cc1.Cl | -1.73% |
| CC(C)(C)SCCNC(=O)/C=C/c1ccccc1 | -2.53% |
| N#C/C(=C(/O)c1ccc([N+](=O)[O-])o1)c1nc2ccccc2[nH]1 | 21.9% |
| Cc1cccc(N(CC(O)CN2CCOCC2)S(=O)(=O)c2ccccc2)c1 (stereo not shown) | -1.7% |
| COc1cc(S(=O)(=O)NCCOC23CC4CC(CC(C4)C2)C3)c(OC)cc1Cl | 5.03% |
| O=C(NC1CC1)C1CCN(C2CCN(C(=O)/C=C/c3cccc(F)c3F)CC2)CC1 | -22.1% |
| COc1ccc(C(=O)Nc2ccccc2C(=O)Nc2ccc(C(=O)O)cc2)cc1 | 16.7% |
| Cc1cc(S(=O)(=O)N2CCC3(CC2)OCCN3S(=O)(=O)c2cccs2)ccc1F | -19.4% |
| COc1ccccc1NC(=O)N(Cc1cc2cc(OC)c(OC)cc2[nH]c1=O)CC1CCCO1 (stereo not shown) | -9.13% |
| CC(C)NC(=O)CC(=O)NN=C1CCCCC1 | 12.8% |
| N/C(COc1ccc(F)cc1)=N\NC(=O)c1cccnc1Oc1ccccc1 | -21.1% |
| CCC1(C)Cc2ccccc2-c2nc3n(c(=O)c21)CCS3 (stereo not shown) | 15.3% |
| CC(C)(C)OC(=O)N1CCN(C(=O)c2cccnc2Cl)CC1 | 2.91% |
| Cc1cc(C)nc(N/N=C/c2ccc3c(c2)OCCO3)n1 | 21% |
| O=C(O)CSc1nnc(CNc2cccc(C(F)(F)F)c2)n1Cc1ccco1 | 17.6% |
| Cc1cc(C)n(C(=O)CCCn2cc([N+](=O)[O-])cn2)n1 | -22% |
| CCCCCc1cc(=O)oc2c(C(CCN(CC)CC)c3cc(OC)c(OC)c(OC)c3)c(OC)cc(OC)c12 (stereo not shown) | -38.2% |
| CCN(c1ccccc1)S(=O)(=O)c1ccc(C(=O)Nc2nnc(COC)o2)cc1 | 15.6% |
| COc1ccccc1CNC(=O)COn1nnc2ccc(S(=O)(=O)N3CCOCC3)cc21 | 5.9% |
| COc1ccc(NC(=S)N2CCN(c3ccccn3)CC2)cc1 | -0.967% |
| CN(C)S(=O)(=O)c1ccc(N2CCOCC2)c(C(=O)O)c1 | 11.4% |
| O=C(NN1C(=O)C2C(C1=O)C1C=CC2C12CC2)c1cccnc1 (stereo not shown) | 17% |
| O=C(Nc1ccc(Cl)c(Cl)c1)c1ccc(Cl)c(Cl)c1 | -4.2% |
| O=C(Cc1cccs1)NCc1cc(Cl)cc(Cl)c1 | 3.23% |
| O=C(Nc1cccc2ccccc12)/C(Cl)=C/c1ccccc1 | -3.45% |

— PMC4336329 (PLoS ONE, 2015)
